Hit rate of the full screen: of about 3,200 compounds, about 110 (3.4%) showed an effect of 50% or more. Some of the results follow.
system: T1, V. cholerae SAD30; set-up: species or system S. aureus MSSA476 (TSB) or V. cholerae SAD30 (LB); 384-well bacterial growth screen at 25 uM, OD600 relative to DMSO control; conditions: relative growth, OD600, LB; 25 µM; inhibitor
T1 construct: SAD30

| SMILES | % of control remaining [%] |
| --- | --- |
| CC(Cl)C(=O)NCCN(C)S(=O)(=O)c1cccs1 (stereo not drawn) [7-F05, 2-chloro-N-[2-(N-methylthiophene-2-sulfonamido)ethyl]propanamide] | 81.4142 |
| CC(Cl)C(=O)Nc1ncnc2[nH]cnc12 (stereo not drawn) [6-I18, 2-chloro-N-(9H-purin-6-yl)propanamide] | 89.0321 |
| Cl.O=C1C=CC(=O)N1C1CNC1 [10-O19, 1-(azetidin-3-yl)-2,5-dihydro-1H-pyrrole-2,5-dione hydrochloride] | 100.994 |
| COc1cc(NC(=O)C(C)Cl)cc(OC)c1 (stereo not drawn) [4-I04, 2-chloro-N-(3,5-dimethoxyphenyl)propanamide] | 104.895 |
| C=CC(=O)NCc1ccc(C(=O)N2CCCC2)cc1 [3-O05, N-{[4-(pyrrolidine-1-carbonyl)phenyl]methyl}prop-2-enamide] | 110.086 |
| CNC(=O)c1cc(OC2CCCN(C(=O)CCl)C2)ccn1 (stereo not drawn) [5-P05, 4-{[1-(2-chloroacetyl)piperidin-3-yl]oxy}-N-methylpyridine-2-carboxamide] | 111.968 |
| Cc1ccc(C=C(C#N)C(=O)NC(N)=O)o1 [8-D21, {2-cyano-2-[(5-methylfuran-2-yl)methylidene]acetyl}urea] | 88.1713 |
| COc1ccc(-c2csc(NC(=O)CCl)n2)c(OC)c1 [4-F12, 2-chloro-N-[4-(2,4-dimethoxyphenyl)-1,3-thiazol-2-yl]acetamide] | 98.6845 |
| Cc1cc(NS(=O)(=O)c2ccc(NC(=O)CCl)cc2)nc(C)n1 [5-I09, 2-chloro-N-{4-[(2,6-dimethylpyrimidin-4-yl)sulfamoyl]phenyl}acetamide] | 98.3503 |
| Cc1noc(C)c1CN(C)C(=O)CCl [5-G06, 2-chloro-N-[(3,5-dimethyl-1,2-oxazol-4-yl)methyl]-N-methylacetamide] | 92.4661 |
| CC(C)c1ccc(CC(=O)CCl)cc1 [10-I17, 1-chloro-3-[4-(propan-2-yl)phenyl]propan-2-one] | 115.644 |
| C=CC(=O)N(C)C[C@@H]1CCC(=O)N1 [3-A22, N-methyl-N-{[(2S)-5-oxopyrrolidin-2-yl]methyl}prop-2-enamide] | 131.612 |
| C=CC(=O)NC(c1nc(C)cs1)C(F)(F)F (stereo not drawn) [2-I17, N-[2,2,2-trifluoro-1-(4-methyl-1,3-thiazol-2-yl)ethyl]prop-2-enamide] | 88.6519 |
| COc1cccc(N2C(=O)C=CC2=O)c1 [10-K03, 1-(3-methoxyphenyl)-2,5-dihydro-1H-pyrrole-2,5-dione] | 23.8457 |
| CC(Cl)C(=O)NC1CCCCC1 (stereo not drawn) [4-O06, 2-chloro-N-cyclohexylpropanamide] | 109.209 |
| C=CC(=O)N(C)Cc1ccn(CC)n1 [1-L16, N-[(1-ethyl-1H-pyrazol-3-yl)methyl]-N-methylprop-2-enamide] | 75.3189 |
| C=CC(=O)N(CC)CC(=O)N1CCCC1c1ccc(F)cc1C (stereo not drawn) [2-F08, N-ethyl-N-{2-[2-(4-fluoro-2-methylphenyl)pyrrolidin-1-yl]-2-oxoethyl}prop-2-enamide] | 91.5854 |
| Cc1ccc(C(=O)CN(C(=O)CCl)c2ccccc2)cc1 [4-B13, 2-chloro-N-[2-(4-methylphenyl)-2-oxoethyl]-N-phenylacetamide] | 88.333 |
| CC(O)=C(C#N)C(=O)Nc1ccc(C(F)(F)F)cc1 [9-A05, 2-cyano-3-hydroxy-N-[4-(trifluoromethyl)phenyl]but-2-enamide] | 85.588 |
| CCN(CC)C(=O)c1ccc(NC(=O)CCl)cc1 [4-C05, 4-(2-chloroacetamido)-N,N-diethylbenzamide] | 102.653 |
| C=CC(=O)NCC(=O)N1CCCO1 [1-H05, N-[2-(1,2-oxazolidin-2-yl)-2-oxoethyl]prop-2-enamide] | 95.9641 |
| CN1C(=O)C(=C(C#N)C(=O)NCc2ccc(Cl)cc2)c2ccccc21 [8-K17, N-[(4-chlorophenyl)methyl]-2-cyano-2-(1-methyl-2-oxo-2,3-dihydro-1H-indol-3-ylidene)acetamide] | 57.9878 |
| N#CC(=Cc1ccc2c(c1)OCCO2)C(=O)NCc1ccccc1 [8-H03, N-benzyl-2-cyano-3-(2,3-dihydro-1,4-benzodioxin-6-yl)prop-2-enamide] | 91.2984 |

| SMILES | % of control remaining [%] |
| --- | --- |
| O=C(CCl)Nc1cc(C(F)(F)F)ccc1Cl [4-J04, 2-chloro-N-[2-chloro-5-(trifluoromethyl)phenyl]acetamide] | 111.106 |
| COc1cccc(C=C(C#N)C(=O)Nc2ccccc2C(=O)O)c1 [9-G08, 2-[2-cyano-3-(3-methoxyphenyl)prop-2-enamido]benzoic acid] | 85.4521 |
| O=C(CCl)Nc1ccnn1Cc1ccccc1Cl [6-O08, 2-chloro-N-{1-[(2-chlorophenyl)methyl]-1H-pyrazol-5-yl}acetamide] | 97.2225 |
| CC(Cl)C(=O)NC(C)c1nnnn1C1CC1 (stereo not drawn) [7-N21, 2-chloro-N-[1-(1-cyclopropyl-1H-1,2,3,4-tetrazol-5-yl)ethyl]propanamide] | 103.882 |
| Cc1cc(C)c(NC(=O)C(C#N)=Cc2ccccc2C)c(C)c1 [8-E13, 2-cyano-3-(2-methylphenyl)-N-(2,4,6-trimethylphenyl)prop-2-enamide] | 74.847 |
| N#CC(=Cc1cnn(CCCl)c1)C(=O)NC1CCCCC1 [9-A16, 3-[1-(2-chloroethyl)-1H-pyrazol-4-yl]-2-cyano-N-cyclohexylprop-2-enamide] | 83.2767 |
| CCCn1c(C)cc(C=C(C#N)C(=O)N2CCCC2)c1C [9-I03, 3-(2,5-dimethyl-1-propyl-1H-pyrrol-3-yl)-2-(pyrrolidine-1-carbonyl)prop-2-enenitrile] | 89.259 |
| C=CC(=O)NCCC(=O)Nc1nc2n(n1)CCCC2 [2-M14, N-[2-({5H,6H,7H,8H-[1,2,4]triazolo[1,5-a]pyridin-2-yl}carbamoyl)ethyl]prop-2-enamide] | 96.5261 |
| O=C(CCl)NC(=O)c1ccc(OC(F)F)cc1 [5-J22, N-(2-chloroacetyl)-4-(difluoromethoxy)benzamide] | 104.907 |
| C=CC(=O)N1CCCCC1Cn1ccnn1 (stereo not drawn) [2-K07, 1-{2-[(1H-1,2,3-triazol-1-yl)methyl]piperidin-1-yl}prop-2-en-1-one] | 85.7184 |
| C=CC(=O)NCc1cnc(-c2ccc(C(F)(F)F)cc2)s1 [1-C13, N-({2-[4-(trifluoromethyl)phenyl]-1,3-thiazol-5-yl}methyl)prop-2-enamide] | 68.9088 |
| N#CC(=Cc1coc2ccccc2c1=O)C(=O)NCCc1ccccc1 [9-J10, 2-cyano-3-(4-oxo-4H-chromen-3-yl)-N-(2-phenylethyl)prop-2-enamide] | 63.1543 |
| O=C(CCl)c1cn(-c2cccc(C(F)(F)F)c2)nn1 [10-C09, 2-chloro-1-{1-[3-(trifluoromethyl)phenyl]-1H-1,2,3-triazol-4-yl}ethan-1-one] | 24.9367 |
| Cc1cc(CN(C(=O)CCl)c2cn(C)nn2)ccc1Cl [5-I12, 2-chloro-N-[(4-chloro-3-methylphenyl)methyl]-N-(1-methyl-1H-1,2,3-triazol-4-yl)acetamide] | 91.7936 |
| Cc1nn(C)c(C)c1C(NC(=O)CCl)C(F)(F)F (stereo not drawn) [5-M18, 2-chloro-N-[2,2,2-trifluoro-1-(1,3,5-trimethyl-1H-pyrazol-4-yl)ethyl]acetamide] | 100.2 |
| CC(Cl)C(=O)N1CCn2c(Cc3c(F)cccc3F)nnc2C1 (stereo not drawn) [6-F18, 2-chloro-1-{3-[(2,6-difluorophenyl)methyl]-5H,6H,7H,8H-[1,2,4]triazolo[4,3-a]pyrazin-7-yl}propan-1-one] | 81.4485 |
| O=C(CCl)N1CCC(CCc2ccccc2)CC1 [6-G12, 2-chloro-1-[4-(2-phenylethyl)piperidin-1-yl]ethan-1-one] | 80.8418 |
| CC(=O)NC1(c2nc(C)cs2)CCN(C(=O)C(C)Cl)C1 (stereo not drawn) [7-O06, N-[1-(2-chloropropanoyl)-3-(4-methyl-1,3-thiazol-2-yl)pyrrolidin-3-yl]acetamide] | 82.868 |
| C=CC(=O)NCCc1ccnn1C [2-O17, N-[2-(1-methyl-1H-pyrazol-5-yl)ethyl]prop-2-enamide] | 95.1365 |
| Nc1c(C(=O)CCl)c(=O)[nH]c(=O)n1C1CC1 [10-P06, 6-amino-5-(2-chloroacetyl)-1-cyclopropyl-1,2,3,4-tetrahydropyrimidine-2,4-dione] | 106.293 |
| CC(Cl)C(=O)NCc1ccn(CC(F)F)n1 (stereo not drawn) [7-I17, 2-chloro-N-{[1-(2,2-difluoroethyl)-1H-pyrazol-3-yl]methyl}propanamide] | 75.9954 |
| N#CC(=Cc1cccc(O)c1)C(=O)Nc1ccc(SC(F)F)cc1 [9-C19, 2-cyano-N-{4-[(difluoromethyl)sulfanyl]phenyl}-3-(3-hydroxyphenyl)prop-2-enamide] | 77.2944 |
